Assay results reported in the supplement of paper PMC11417369.
The list shows a part of the results.

Each sequence was assayed on PfHDP1 homeodomain (GST-tagged) (assay: gcPBM binding intensity (ln(normalized median fluorescence intensity)); higher = stronger DNA binding).
Outline: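 GST-tagged P. falciparum DNA-binding domains, expressed in E. coli (about 25 μg on average), were applied for 1 h to an Agilent 4 × 180k array of primer-extended double-stranded 36-bp intergenic genomic probes plus negative controls. The binding buffer was 1× PBS with 1% milk, 0.2 mg/ml BSA, 0.5% salmon testes DNA and 0.03% Triton X-100. Bound protein was detected with Alexa488 anti-GST antibody and scanned at 488 nm. Binding intensity is the highest Masliner-normalised natural-log median intensity across replicate spots of either probe orientation.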

| Sequence | gcPBM binding intensity (ln) |
| --- | --- |
| GTTTACATCATTCTGGTGCAAAAAAAAAAAAAAATA | 10.5 |
| CATAAGAGGAACTTTTGTACTTATATGTATATAGTA [XGTACX_site5836] | 5.9 |
| TATATCGTTATATAAACACACAATATGTTTTTTATA [CACACA_site7730] | 6.33 |
| CTTTTATGAAACAGTGCACACATAAAAATATATACA [CACACA_site8981] | 9.92 |
| GCCACACTTTTCTGCACACATAAAAAATATATAAAT [CACACA_site578] | 8.9 |
| AAAAAAAAAAAAAAAACACACATTTGAAAGAAAGAA [CACACA_site3339] | 6.72 |
| TACACCCATGGACACACACACACGCATAAAAAAAAA [CACACA_site4933] | 6.86 |
| ATTTTTATTTTCTTTACACACCACATAATTTTTTTT [CACACA_site6092] | 7.2 |
| ATATATAATATATATGCATGTGACATTAATAATATA [TGCATGCA_site880] | 6.6 |
| ATATGAAAGGTGTACACACGCACACCCAAAAAAATA [CACACA_site2911] | 6.86 |
| TAATTTAAAAATATAAATGTTTCACTTATATATTTT [TGCATGCA_negctrl_site399] | 5.97 |
| AACTGAGAAACCGAAGTGCAATATGTATATATACAT | 9.08 |
| CCACACTTAAAATACACACACACCAAAAAAAAAAAA [CACACA_site2709] | 6.83 |
| ATTTATTGACTATTTACACACATATTTATTAGAATA [CACACA_site6863] | 6.74 |
| GGGAGGATAGTTCACAGTACCCAGTAACTCTACGGA [XGTACX_site2558] | 6.32 |
| ATGATACATAAAGAATATAAAACATGAAATATAATA [CACACA_negctrl_site1461] | 6.49 |
| TTTTTGTTTTTTTTTTGTACATATATATAAAAAATA [XGTACX_site1214] | 6.45 |
| TTTTTTTTAATATTTTACATTGTCTGTTAACAAATA [CACACA_negctrl_site599] | 6.45 |
| AACACTTTAATTTATGCACACATATGGAACAACAGC [CACACA_site8241] | 10.2 |
| AGATATATATTTTATTGTACACATTAAAGTATAAAA [XGTACX_site7194] | 6.3 |
| AACATTTTTAGATTATATTATTAAATAAGTAACTGC [XGTACX_negctrl_site326] | 6.36 |
| TATGTATTTATATATACACACTTCTGTGATACGAAA [CACACA_site5128] | 6.68 |

| Sequence | gcPBM binding intensity (ln) |
| --- | --- |
| AAGTTTTTTATTTTTTGTACATAAAAAATAATAATT [XGTACX_site1755] | 6.23 |
| TTTATATTTATCCAAAGTACTTTTTAAAAACATACC [XGTACX_site4518] | 6.47 |
| ATGAACATTTATAAATGTACTCACATATATATATTT [XGTACX_site6692] | 6.51 |
| ATTAAAAATAAGAAGAGTACATATAATATATATACA [XGTACX_site3092] | 6.12 |
| ACCTTTTGGATTATATGTACATATATATATATATAT [XGTACX_site2687] | 9.17 |
| TTAAAAAGAAAGTTCACACACATATATATGACGGAA [CACACA_site2602] | 6.78 |
| AAAATAATATTTAATACACACATAATTATAATATAA [CACACA_site782] | 6.64 |
| ATTTTTAATTGAATCACACATTTCCTTTCTTTTGTG [CACACA_site4438] | 6.55 |
| ATATTATTTTAAAGTACACACATATATTGATATATA [CACACA_site7153] | 6.72 |
| TTTTTCATTTAACAGAAGGGAGATAAAAAAAAAAAA [TGCATGCA_negctrl_site261] | 6.49 |
| GTATGTATGTATGTATGTACGTATGTATGTATATAT [XGTACX_site3369] | 7.57 |
| AATAATTATAAAAAATGTACAAAAAAAAAAAAAAAA [XGTACX_site3681] | 6.33 |
| AGAATACATCTATGAACACACAGAGTTTTAAAAAAT [CACACA_site5514] | 6.18 |
| ATACTAAATATAAATTGTACTTTATTTATATTGAGA [XGTACX_site8699] | 6.18 |
| GCAAATCATGCTATGGTGCATATGTAAGATGAGCAT | 10.4 |
| TTGTGATTATTATATTGTACAATAAGTATTAAAGAA [XGTACX_site2753] | 7.23 |
| ATATATAATACTACAGTGCAATATATTATATTTGTT | 8.63 |
| TTCCTCTTAAAATATACACACTGATTTAAGAAAAAA [CACACA_site5770] | 6.42 |
| AAATAAAAGTTCACCTGTACACACATATATATATGT [XGTACX_site3513] | 6.68 |
| CATAAAATATAAAACACACACACATATATTTATATA [CACACA_site6247] | 7.04 |
| TTTTTTTTTTTTTAGAGTACACACTTTTTTACATTT [XGTACX_site8159] | 6.44 |
| TATATATATATATATATACACACTATATAATTCAAA [CACACA_site1023] | 9.47 |
